PubChem BioAssay AID651820 (National Center for Advancing Translational Sciences (NCATS), 2012)
“And” between values parts separate entries of the source, which are not always exact repeats. Equal entries are not always repeated. The campaign covered roughly 340,000 compounds. About 12,000 (3.5%) were called active. This list was built around the results that the source calls inconclusive (neither active nor inactive); the mix of calls is not that of the screen. Calls come from the whole dose curve; as a rule, active = well fitted inhibition curve with a large enough effect; inconclusive = small, poorly fitted or top-dose-only effect, or another doubt; inactive = no such curve, though single readings can be large or run the other way. Where the call is inconclusive, the potency comes from a doubtful curve fit.

assay: qHTS Assay for Inhibitors of Hepatitis C Virus (HCV); settings: Huh7.5.1 HCVcc-Cre (HCVcc is cell-culture hepatitis C virus) infection, luciferase reporter, 44 h; activity change, negative = inhibition: at 41.8 µM (top of the series) unless noted
Method in brief: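 Whole-lifecycle infectious HCVcc-Cre system; cells 1,000/well, compound then virus (~0.5 moi) added 4 h after plating, 44 h culture. Luciferase read 15 sec following 15 min substrate incubation, room temp.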
% is set by controls: 0 for no effect and ±100 for the full control effect; potency is the fitted concentration of half-maximal effect; tags give direction and shape of the fitted curve.

Compound	Potency	activity change, negative = inhibition
CCOC(=O)c1sc(Nc2nc3cc4c(cc3s2)OCO4)cc1C	inconclusive: 12.6 µM [inhibitor, partial curve]	–
Cc1ccc(NC(=O)COC(=O)c2cc(-c3cccs3)nn2-c2ccccc2)cc1[N+](=O)[O-]	inconclusive: 7.94 µM [inhibitor, partial curve]	–
Cc1nc(C)c(C(=O)N/N=C/c2cc(Br)ccc2O)s1	inconclusive: 3.55 µM [inhibitor, full curve]	–
COc1ccccc1NC(=O)c1oc2ccccc2c1NC(=O)c1ccco1	inconclusive: 1.41 µM [inhibitor, full curve, poor fit]	–
Cc1ccc(O)c(N/C=C/C(=O)c2ccc(F)cc2)c1	inconclusive: 22.4 µM [inhibitor, single point]	–
CC(=O)Nc1ccc(NC(=O)C2(C)CC2(Cl)Cl)cc1 (stereo not given)	inconclusive: 0.562 µM [inhibitor, full curve]	–
Cc1ccc(/C=N/NC(=O)CCCOc2ccc(Cl)cc2Cl)cc1	inconclusive: 31.6 µM [inhibitor, single point]	–
COc1ccc2nc(-c3ccccc3)[nH]c(=O)c2c1	active: 2.82 µM	–
COCCOC(=O)c1[nH]c2c(c1C)C(=O)CC(c1ccc(F)cc1)C2 (stereo not given)	inconclusive: 6.31 µM [inhibitor, partial curve]	–
O=C(CN1CCOCC1)NNc1c2ccccc2nc2ccccc12	active: 8.91 µM	–
Cc1c(C)n(Cc2ccc(Cl)cc2)c2ccc(C(=O)NCCCN3CCOCC3)cc12	inconclusive: 11.2 µM [inhibitor, partial curve]	–
CCc1c(C)sc(NC(=O)C2CC2)c1C(=O)OC(C)C	inconclusive: 7.94 µM [inhibitor, partial curve]	–
Cc1ccccc1NC(=O)c1cccc(NC(=O)c2ccco2)c1	–	inactive: 13.6%
Cc1ccc(NC(=O)c2ccc(CSc3ncnc4nc[nH]c34)cc2)c(C)c1	inconclusive: 0.501 µM [inhibitor, full curve, poor fit]	–
Cc1cccc(-c2cc(C(=O)Nc3ccc4c(c3)OCCO4)c3ccccc3n2)c1	inconclusive: 31.6 µM [inhibitor, single point]	–
COC(=O)CN1CCN(C(=O)c2ccco2)CC1	–	inactive: 18.8%
O=S(=O)(c1ccccc1)[C@@]1(c2ccc(Br)cc2)C[C@@H]2ON=C(c3cccc(Br)c3)[C@@H]2C1	–	inactive: 11.7%
COc1ccc(C(OCC(O)CNCCc2ccc(S(N)(=O)=O)cc2)c2ccc(OC)cc2)cc1 (stereo not given)	inconclusive: 31.6 µM [inhibitor, single point]	–
Cn1c(=NC(=O)CCl)sc2ccccc21	active: 2 µM	–
Cc1ccc(Cl)cc1N1CCN(S(=O)(=O)c2cccc(S(=O)(=O)N3CCCC3)c2)CC1	inactive and inconclusive: 22.4 µM [inhibitor, single point]	–
CCOC(=O)Cn1cnc2c(nnn2-c2cccc(OC)c2)c1=O	–	inactive: -1.02%
COc1ccc(CNC(=O)c2noc3c2CCCCC3)cc1	inconclusive: 25.1 µM [inhibitor, single point]	–
NC(N)=Nc1nc2ccccc2o1	–	inactive: 6.13%
Cc1c(Cl)cccc1NC(=S)N=Nc1c(O)n(CN2CCOCC2)c2ccccc12	inconclusive: 15.8 µM [inhibitor, single point]	–

Compound	Potency	activity change, negative = inhibition
CCC(C)Sc1cc(-c2nc3cc(C)ccn3c2NC2CCCCC2)ccc1OC (stereo not given)	inconclusive: 1.78 µM [inhibitor, partial curve]	–
CCCc1ccc(C(=O)CCC(=O)O)cc1	–	inactive: 28.1%
COc1ccc(N2C(=O)CC(NCCNc3ccc([N+](=O)[O-])cn3)C2=O)cc1 (stereo not given)	–	inactive: 1.6%
CCCOC1CCCN(C(=O)CCc2nnc(-c3ccc4c(c3)OCO4)o2)C1 (stereo not given)	–	inactive: -5.44%
CC1=CC(=O)C(C(C)C)=C/C1=N/OS(=O)(=O)c1ccccc1	active: 6.31 µM	–
CC(=O)N(C)c1ccc(NC(=O)C(Sc2ccccc2)c2ccccc2)cc1 (stereo not given)	inconclusive: 8.91 µM [inhibitor, single point]	–
COC1=C(OC)C(=O)C(Sc2ccc3ccccc3c2)=CC1=O	inconclusive: 14.1 µM [inhibitor, single point]	–
O=C(NCCCN1CCCC1)c1ccc2c(c1)N(Cc1cccc(Cl)c1)C(=O)c1ccccc1S2=O (stereo not given)	inconclusive: 5.62 µM [inhibitor, full curve]	–
Cc1cccc(-n2ncc3c(NCc4ccco4)ncnc32)c1	inconclusive: 20 µM [inhibitor, partial curve, poor fit]	–
COc1ccc(NC(=O)c2ccc(-c3ccc([N+](=O)[O-])cc3)o2)cc1OC	inconclusive: 2.82 µM [inhibitor, full curve]	–
COc1cc(C(=O)NNC(=O)Nc2ccc([N+](=O)[O-])cc2)cc(OC)c1OC	–	inactive: 13.2%
COc1cccc(CC(=O)OCC(=O)NCCc2ccc(F)cc2)c1	–	inactive: 9.7%
Cc1ccc(Nc2ccccc2N)cc1	inconclusive: 31.6 µM [inhibitor, single point]	–
c1coc(CNc2c3c(nc4ccccc24)CCC3)c1	inconclusive: 22.4 µM [inhibitor, single point]	–
CCCS(=O)(=O)Nc1ccc(Nc2c3ccccc3nc3ccccc23)c(OC)c1	inconclusive: 0.891 µM [inhibitor, full curve]	–
O=C(CC12CC3CC(CC(C3)C1)C2)N/N=C/c1ccc([N+](=O)[O-])o1	inconclusive: 22.4 µM [inhibitor, single point]	–
Cc1cc(C)cc(N2Cc3ccccc3C2)c1	–	inactive: 22%
CCCCC(=O)NS(=O)(=O)c1ccc(N=NN2CCOCC2)cc1	–	inactive: 8.74%
Cc1ccc(OCc2cc(C(=O)NCc3cnn(-c4cccc(F)c4)c3)no2)cn1	inconclusive: 3.16 µM [inhibitor, single point]	–
COc1ccc2c(c1)CC/C(=C\c1ccc(C)o1)C2=O	–	inactive: -26.5%
O=C(NCc1nc2ccccc2[nH]1)C1=C[C@@H](c2ccc(Br)cc2)C[C@@H](OCc2ccc(CO)cc2)O1	inconclusive: 0.501 µM [inhibitor, full curve, poor fit]	–
Cc1nc(SCC(=O)N(C)Cc2ccco2)c2c(C)c(C)sc2n1	inconclusive: 31.6 µM [inhibitor, single point]	–
CCN1C(=O)C2(C(C(=O)c3ccc(C)o3)=C(O)C(=O)N2CCCN2CCOCC2)c2ccccc21 (stereo not given)	inconclusive: 31.6 µM [inhibitor, single point]	–
COc1ccc(-n2nc3c(N4CCC(C(=O)NCc5ccccc5C)CC4)nnc(C)c3c2C)cc1	active: 11.2 µM	–

Compound	Potency	activity change, negative = inhibition
O=C(O)c1ccccc1SCc1csc(-c2ccccc2)n1	–	inactive: 8.11%
CC1=CC2=NC(=O)/C(=C\c3cc(C)n(-c4ccc(F)cc4)c3C)C(=N)N2O1	inconclusive: 3.16 µM [inhibitor, partial curve]	–
COc1ccc(/C=C/C(=O)Nc2ccc(C34CC5CC(CC(O)(C5)C3)C4)cc2)cc1OC	inconclusive: 3.98 µM [inhibitor, partial curve]	–
Cc1ccc(NC2=C(Cl)C(=O)c3ccccc3C2=O)cc1	active: 7.08 µM	–
COc1ccc(NC(=O)CCC(=O)N/N=C/c2ccc([N+](=O)[O-])s2)cc1	inconclusive: 12.6 µM [inhibitor, partial curve]	–
O=c1c2ccccc2nc(-c2ccc(Cl)cc2Cl)n1CCCn1ccnc1	–	inactive: -7.51%
CSc1ccc(-c2nc(CSCC(=O)NC3CC3)c(C)o2)cc1	inconclusive: 11.2 µM [inhibitor, single point]	–
CCOCCCn1cnc2c(c1=O)c1nc3ccccc3nc1n2-c1ccc(C)cc1	inconclusive: 5.62 µM [inhibitor, single point]	–
COc1ccc(CNC(=O)CCCOc2cc(=O)n(C)c3ccccc23)cc1	–	inactive: 3.27%
CCCCc1ccc(NC(=S)NCc2ccc(OC)cc2)cc1	inconclusive: 11.2 µM [inhibitor, single point]	–
CC[C@]12c3[nH]c4cc(-c5ccco5)ccc4c3CCN1C(=O)[C@@H](CC(=O)NC/C=C(\C)CCC=C(C)C)C[C@@H]2C(=O)N1CCN(C(=O)c2ccco2)CC1	active: 12.6 µM	–
Cc1cnc(NC(=O)COc2ccc3c(c2)CCC3)s1	inconclusive: 14.1 µM [inhibitor, single point]	–
Cc1cc(C)c2c(c1)c1nnc(SCCN3CCCCC3)nc1n2C	inconclusive: 6.31 µM [inhibitor, partial curve]	–
COc1ccc([C@H]2CC(=O)C=C(c3cc(Br)ccc3OC)C2)cc1	inconclusive: 10 µM [inhibitor, single point]	–
O=C(NCc1ccco1)c1ccccc1Nc1ccc(F)cc1	–	inactive: -3.83%
O=C(NCc1cccc(Cl)c1)c1cccc(S(=O)(=O)N2CCCC2)c1	inconclusive: 14.1 µM [inhibitor, single point]	–
O=C(NC1CCCCCC1)c1cc2ccccc2oc1=O	inconclusive: 2.82 µM [inhibitor, partial curve]	–
CC(=O)Nc1c(Cl)c(Cl)c2c(c1Cl)C(=O)c1cc(Cl)ccc1-2	inconclusive: 10 µM [inhibitor, partial curve, poor fit]	–
COc1cc(C(=O)Nc2cccc(-c3nnc(-c4ccco4)o3)c2)ccc1OC(C)=O	inconclusive: 31.6 µM [inhibitor, single point]	–
O=C(NN1C(=O)NC2(CCCCC2)C1=O)c1cccs1	–	inactive: -9.1%
CCCCNC(=O)CCn1c(=S)[nH]c2cc3c(cc2c1=O)OCO3	inconclusive: 31.6 µM [inhibitor, single point]	–
COc1cc(/C=N/NC(=O)c2ccc(COc3cc(C)ccc3C(C)C)cc2)cc(OC)c1O	inconclusive: 3.55 µM [inhibitor, partial curve]	–
